{"source": "PubChem BioAssay AID1508642", "about": "(National Center for Advancing Translational Sciences (NCATS), 2021)", "note": "Screen size: about 43,000 compounds; about 200 (0.47%) were called active. Inconclusive results (about 12%) are left out. Calls follow the shape of the dose curve; as a rule, active = well fitted cell-killing curve with a large enough effect; inconclusive = small, poorly fitted or top-dose-only effect, or effect the other way; inactive = flat fitted curve, though single readings scatter. The list shows a part of the results. % is scaled to controls: 0 for no effect and ±100 for the full control effect.", "data": [{"assay": "Cell viability qHTS assay in S16 Pmp22-F2sN cells; also: nearly all actives have a fitted effect of over 65% in size", "conditions": "S16 Pmp22-F2sN Schwann cells (luciferase reporters placed in the Pmp22 gene) viability, CellTiter-Glo, 24 h; series mostly up to 57.5 µM; activity change, negative = cytotoxicity: at the top concentration", "procedure,_shortened": "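S16 Schwann cells carrying the Pmp22-F2sN reporter, seeded in 1536-well format, were exposed to library compounds for 24 h at 37C. Viability was read as CellTiter-Glo luminescence after 15 min at room temperature.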", "values": [{"smiles": "COc1ccc(CCNS(=O)(=O)c2cc(-c3onc(C)c3C)ccc2OC)cc1OC", "activity change, negative = cytotoxicity": "inactive: -2.01%"}, {"smiles": "CCOc1ccc(CCNC(=O)c2ccc3c(c2)N(Cc2ccccc2F)C(=O)c2ccccc2S3=O)cc1OCC", "note": "(configuration not stated)", "activity change, negative = cytotoxicity": "inactive: 26.5%"}, {"smiles": "CCCS(=O)(=O)N1CC(=O)N(c2ccc(C)cc2C)C(C)(C(=O)NC2CCCCCC2)C1", "note": "(configuration not stated)", "activity change, negative = cytotoxicity": "inactive: 2.58%"}, {"smiles": "O=C(Cn1c(=O)nc(-c2ccccc2)c2cc(Cl)ccc21)NCc1ccc(Cl)cc1", "activity change, negative = cytotoxicity": "inactive: -14.3%"}, {"smiles": "CCCCN(C)CCNC(=O)CN1C(=O)CSc2ccc(S(=O)(=O)N3CCCCC3)cc21", "activity change, negative = cytotoxicity": "inactive: 15.5%"}, {"smiles": "CCOC(=O)N1CCc2c(sc(NCc3cccs3)c2C(=O)Nc2ccc(OC)cc2OC)C1", "activity change, negative = cytotoxicity": "inactive: -7.02%"}, {"smiles": "O=c1c(S(=O)(=O)c2ccccc2)cn(Cc2cccc(F)c2)c2cc(N3CCCC3)c(F)cc12", "activity change, negative = cytotoxicity": "inactive: 4.29%"}, {"smiles": "CCc1ccc(NC(=O)CSc2nc(=O)n(Cc3ccncc3)c3c2CCC3)cc1", "activity change, negative = cytotoxicity": "inactive: -6.08%"}, {"smiles": "Cc1ccc(C)c(Nc2nn3c(=O)c4cc5c(cc4nc3s2)OCO5)c1", "activity change, negative = cytotoxicity": "inactive: -2.14%"}, {"smiles": "Cc1cc2c(cc1S(=O)(=O)CCC(=O)N1CCCCC1C)OCC(=O)N2", "note": "(configuration not stated)", "activity change, negative = cytotoxicity": "inactive: 2.18%"}, {"smiles": "O=C(COCc1cc(-c2ccc3c(c2)OCO3)on1)Nc1cc(C(F)(F)F)ccc1Cl", "activity change, negative = cytotoxicity": "inactive: 20.5%"}, {"smiles": "CCN1CCN(CCCNC(=O)Cn2c(-c3cccs3)cc3cc(F)ccc32)CC1", "activity change, negative = cytotoxicity": "inactive: -4.73%"}, {"smiles": "Cc1oc(-c2ccc(C(=O)NCc3ccccc3Cl)cc2)nc1CN1CCc2ccccc21", "activity change, negative = cytotoxicity": "inactive: 0.458%"}, {"smiles": "CCCn1c(CCC(=O)Nc2ccc(C)c(Cl)c2)nc2cccnc21", "activity change, negative = cytotoxicity": "inactive: 0.455%"}, {"smiles": "COc1ccc(C)cc1NC(=O)c1cc(S(=O)(=O)N2CCc3ccccc3C2)ccc1F", "activity change, negative = cytotoxicity": "inactive: 5.29%"}, {"smiles": "CCCCNC(=O)CCn1c(=O)c2cccn2c2cccnc21", "activity change, negative = cytotoxicity": "inactive: 15.4%"}, {"smiles": "CCN(C(=O)c1c(C)oc2ncn(CC(C)C)c(=O)c12)c1cccc(Cl)c1", "activity change, negative = cytotoxicity": "inactive: 1.64%"}, {"smiles": "Cc1ccc(S(=O)(=O)C(CNC(=O)C(=O)NCCc2ccc(Cl)cc2)c2cccs2)cc1", "note": "(configuration not stated)", "activity change, negative = cytotoxicity": "inactive: 5.84%"}, {"smiles": "O=c1c2ccccc2n2c(-c3ccccc3F)nnc2n1CCc1ccccc1", "activity change, negative = cytotoxicity": "inactive: -7.29%"}, {"smiles": "COc1cc(OC)c(N(C)C(=O)c2cc3c(=O)oc4ccccc4c3s2)cc1Cl", "activity change, negative = cytotoxicity": "inactive: 13.9%"}, {"smiles": "Cc1ccc(-n2nc(C(=O)N(C)Cc3ccccc3)c3c4ccccc4n(C)c3c2=O)cc1", "activity change, negative = cytotoxicity": "inactive: 16.9%"}, {"smiles": "Cc1ccc(C(=O)N(c2ccc(C)cc2)S(=O)(=O)c2ccc(Cl)cc2)cc1", "activity change, negative = cytotoxicity": "inactive: -2.34%"}, {"smiles": "CC(C)c1ccc(NC(=O)c2ccc3c(O)c(S(=O)(=O)c4ccccc4)c(=O)[nH]c3c2)cc1", "activity change, negative = cytotoxicity": "inactive: -4.05%"}, {"smiles": "Cc1ccc(NC(=O)C(Cc2ccccc2)N2Cc3ccccc3C2=O)cc1Cl", "note": "(configuration not stated)", "activity change, negative = cytotoxicity": "inactive: -8.55%"}, {"smiles": "Cc1ccc(-n2c(=O)c3c(c4cc(C)ccc4n3C)n(Cc3ccc(F)cc3)c2=O)cc1", "activity change, negative = cytotoxicity": "inactive: 2.14%"}, {"smiles": "Cc1ccccc1C(=O)N(Cc1ccc(N(C)C)cc1)CC1CCCO1", "note": "(configuration not stated)", "activity change, negative = cytotoxicity": "inactive: 18.4%"}, {"smiles": "Cc1ccc(N2CCN(C(=O)NCc3noc4ccc(C)cc34)CC2)c(C)c1", "activity change, negative = cytotoxicity": "inactive: 5.27%"}, {"smiles": "COC(=O)c1ccccc1NC(=O)C1CCCN(c2ncnc3onc(C)c23)C1", "note": "(configuration not stated)", "activity change, negative = cytotoxicity": "inactive: -0.155%"}, {"smiles": "Cc1ccc(CNC(=O)c2sc3nc4n(c(=O)c3c2C)CCCCC4)cc1", "activity change, negative = cytotoxicity": "inactive: -1.56%"}, {"smiles": "COc1ccccc1NC(=O)CSC1=Nc2ccccc2C2=NC(CC(=O)NCc3ccc4c(c3)OCO4)C(=O)N12", "note": "(configuration not stated)", "activity change, negative = cytotoxicity": "inactive: 5.75%"}, {"smiles": "COc1ccccc1N=C1SC(C(=O)Nc2ccccc2OC)CC(=O)N1C", "note": "(configuration not stated)", "activity change, negative = cytotoxicity": "inactive: 1.87%"}, {"smiles": "CCOC(=O)c1noc2ncnc(NCc3ccccc3OC)c12", "activity change, negative = cytotoxicity": "inactive: 6.96%"}, {"smiles": "O=C(NCCOCCn1c(=O)oc2ccccc21)Nc1cccc(Cl)c1", "activity change, negative = cytotoxicity": "inactive: -16.2%"}, {"smiles": "O=S(=O)(c1ccc(-n2cnnn2)cc1)N1CCN(c2cccc(C(F)(F)F)c2)CC1", "activity change, negative = cytotoxicity": "inactive: 1.53%"}, {"smiles": "Cc1oc(C)c2c(=O)cc(-c3ccc4c(c3)OCO4)cc(OC(=O)c3cccc(Cl)c3)c12", "activity change, negative = cytotoxicity": "inactive: -10.9%"}, {"smiles": "Cc1ccc(S(=O)(=O)NCc2ccc(C(=O)NCCc3cccc(C)c3)cc2)cc1", "activity change, negative = cytotoxicity": "inactive: -20.1%"}, {"smiles": "COc1ccc(S(=O)(=O)N(Cc2nc(-c3ccc(Cl)cc3)no2)C2CCCCC2)cc1", "activity change, negative = cytotoxicity": "inactive: -26.1%"}, {"smiles": "N#Cc1c(C(F)(F)F)cc(-c2cccs2)nc1SCC(=O)Nc1cccc(C(F)(F)F)c1", "activity change, negative = cytotoxicity": "inactive: 0.998%"}, {"smiles": "O=C(c1ccccc1Br)N1CCC(c2nc3ccccc3o2)CC1", "activity change, negative = cytotoxicity": "inactive: -19.8%"}, {"smiles": "Cc1ccc(Cn2c(=O)n(-c3cc(C)cc(C)c3)c(=O)c3oc4ccccc4c32)cc1", "activity change, negative = cytotoxicity": "inactive: 18%"}, {"smiles": "CCCCOC(=O)c1cccc(NC(=O)/C=C/c2ccccc2Cl)c1", "activity change, negative = cytotoxicity": "inactive: -15.2%"}, {"smiles": "COC(=O)c1ccc(Cl)cc1NC(=O)N(Cc1ccc(OC)cc1)C1CCN(C(C)=O)CC1", "activity change, negative = cytotoxicity": "inactive: -3.86%"}, {"smiles": "COc1ccc(OC)c(NC(=O)CSc2nc3ccccc3c(=O)n2CCC(=O)NC2CCCCC2)c1", "activity change, negative = cytotoxicity": "inactive: -16.6%"}, {"smiles": "COc1cc(Cl)c(C)cc1NC(=O)c1sc2nc(C)cc(C)c2c1N", "activity change, negative = cytotoxicity": "inactive: 4.41%"}, {"smiles": "Cc1ccsc1CN(C(=O)COc1cccc(C)c1C)C1CCS(=O)(=O)C1", "note": "(configuration not stated)", "activity change, negative = cytotoxicity": "inactive: 1.2%"}, {"smiles": "CN1C(=O)C(C)(C)c2cc(S(=O)(=O)N3CCCC3C(=O)Nc3ccc(F)cc3)ccc21", "note": "(configuration not stated)", "activity change, negative = cytotoxicity": "inactive: 4.02%"}, {"smiles": "COc1ccccc1NC(=O)C(Cc1ccccc1)NS(=O)(=O)c1cccc2nsnc12", "note": "(configuration not stated)", "activity change, negative = cytotoxicity": "inactive: -18.8%"}]}]}
